B1: TRAIL-R1-Fc WT (human TRAIL-R1 fused to human Fc IgG1, recombinant soluble receptor) (Fc fusion)
chain: not shown
modifications: N-linked glycan on N156
B2: TRAIL-R1-Fc N156A (N-glycosylation-deficient human TRAIL-R1 fused to human Fc IgG1) (Fc fusion)
chain: not shown

Target: Flag-hTRAIL (Flag-tagged soluble human TRAIL) (human, UniProt P50591 39-281)
Experiment: BLI

Binder | Kd [nM]
B1 | 8
B2 | 8.7

Reference: PMC5344210 (Cell Death and Differentiation, 2017)
